# Experimental data from the supplement of paper PMC8728848.
# This is one part of the list.
# B1: Epa1-NP-mutant-Y228A (Candida glabrata), Q6VBJ0 (protein)
# chain: MILNPALFLNKCVCIYTTLILLLLTNGGYATSSNDISLASKDPTTFPLGCSPDITTPKKGLSMELYSYDFRKKGSYPCWDAAYLDPNYPRTGYKSHRLLAKVDGVTGNINFYYHATKGCTPQLGHLPASYNYPKPLTMTNFTMLLYGYFRPKVTGFHTFTISADDLLFVNFGAGNAFDCCRRDSSADHFGNYQAYAIWGSKTAKDELTVHLDAGVYYPIRLFYNNREADGALSFTFKTESNENTVSDFSEYFFSLDDTEEGCPGLISYDSSCASVKTSKIIGIDYHTETPNENLVPITKTIYHLGIPCTGTTTTPLCGSGFYDPLANKCVTINTSSTSSVTKTTSHTTSKEVSFHSSISSQKTLIPKSIPSPYGPIKSQSIPTEMETSSEISSSEYAFSDVISTPSHSPYTKKHSSLNSSSYTSTVIHSLTSYSISQGIFSTSLSEQNITSKSSTDKFSTATSMSNNITQSSIIISQFSTNNENYTTTSMHTSSDKISTETLNNSISTTTSILFSNSSTILKNNTTIISSDKDTHYHPVNPTIVCSTNKTEIICASITQPSISNSNNHWSSSVLKFNSTTVRSTLPSSAGSNETSINVPFSSSTESNTSTSSTSTSNSKMVRSTLPSSAGSNETSISVPFSSSTESNTSTSSTSTSNSKMVRSTLPSSAGSNETSINVPFSSSTESNTSTSSTSTSNSKTVRSTPFSSAGIIMTSLSQRNNKSASSYASSNSKCYNTADSCRKVHSTPSYLLTSSYTSEGVDYDCSLVSTKLKINDTNCVNNKHTTKSCLKTSVTTTIPTLEIKTARKSSSNTIGLHSYPTSSPNKSISSAPIIGYISSFKTIKTASPSYQTSDLTTITTITSLNNPGSTAVENTHESNDKSRKTSSNDISSKHSVIKETKDAVESSNKSHQTNTLKCSSIIIASSSHNSYESLGGTTLTLTLSKVYSPQNNDTLPFLEISEVNPSRTVLPESSKMMQYLTSTEERNKTARNTIATNIVSISTFHFEGEGNAIRMGYTQLLLMLIGIIVMNIGT
# What was measured:
# Assay in all cases: glycan array binding signal (z-score within array); higher = stronger binding
# Details in all cases: glycan notation: IUPAC condensed, linker removed; mutation: Y228A
# [1] = biological target: GlcNAc(a1-6)Gal(b1-4)GlcNAc
# In short: (§1)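 The binding signal is a Z-score computed within each array. Data were drawn from 3228 arrays in the Consortium for Functional Glycomics database, restricted to those with a known protein sequence. Scores were averaged over arrays of the same protein sequence at different concentrations or buffers, and over linkers, and negative values can be taken as non-binding.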
# [2] = biological target: GlcNAc(b1-2)Gal(b1-3)GalNAc
# In short: as §1
# [3] = biological target: GlcNAc(b1-2)Man(a1-3)[GlcNAc(b1-2)Man(a1-6)]Man(b1-4)GlcNAc(b1-4)GlcNAc
# In short: as §1
# [4] = biological target: GlcNAc(b1-2)Man(a1-3)[GlcNAc(b1-2)Man(a1-6)]Man(b1-4)GlcNAc(b1-4)[Fuc(a1-6)]GlcNAc
# In short: as §1
# [5] = biological target: GlcNAc(b1-2)Man(a1-3)[GlcNAc(b1-4)][GlcNAc(b1-2)Man(a1-6)]Man(b1-4)GlcNAc(b1-4)GlcNAc
# In short: as §1
# [6] = biological target: GlcNAc(b1-2)Man(a1-3)[GlcNAc(b1-4)][GlcNAc(b1-2)Man(a1-6)]Man(b1-4)GlcNAc(b1-4)[Fuc(a1-6)]GlcNAc
# In short: as §1
# [7] = biological target: GlcNAc(b1-2)[GlcNAc(b1-4)]Man(a1-3)[GlcNAc(b1-2)Man(a1-6)]Man(b1-4)GlcNAc(b1-4)GlcNAc
# In short: as §1
# [8] = biological target: GlcNAc(b1-2)[GlcNAc(b1-4)]Man(a1-3)[GlcNAc(b1-4)][GlcNAc(b1-2)Man(a1-6)]Man(b1-4)GlcNAc(b1-4)GlcNAc
# In short: as §1
# [9] = biological target: GlcNAc(b1-2)[GlcNAc(b1-4)]Man(a1-3)[GlcNAc(b1-4)][GlcNAc(b1-2)[GlcNAc(b1-6)]Man(a1-6)]Man(b1-4)GlcNAc(b1-4)GlcNAc
# In short: as §1
# [10] = biological target: GlcNAc(b1-2)[GlcNAc(b1-4)]Man(a1-3)[GlcNAc(b1-4)][GlcNAc(b1-2)[GlcNAc(b1-6)]Man(a1-6)]Man(b1-4)GlcNAc(b1-4)[Fuc(a1-6)]GlcNAc
# In short: as §1
# [11] = biological target: GlcNAc(b1-2)[GlcNAc(b1-6)]Man(a1-6)[GlcNAc(b1-2)Man(a1-3)]Man(b1-4)GlcNAc(b1-4)GlcNAc
# In short: as §1
# [12] = biological target: GlcNAc(b1-2)[GlcNAc(b1-6)]Man(a1-6)[GlcNAc(b1-2)Man(a1-3)]Man(b1-4)GlcNAc(b1-4)[Fuc(a1-6)]GlcNAc
# In short: as §1
# [13] = biological target: GlcNAc(b1-2)[GlcNAc(b1-6)]Man(a1-6)[GlcNAc(b1-4)][GlcNAc(b1-2)Man(a1-3)]Man(b1-4)GlcNAc(b1-4)GlcNAc
# In short: as §1
# [14] = biological target: GlcNAc(b1-3)Fuc
# In short: as §1
# [15] = biological target: GlcNAc(b1-3)Gal
# In short: as §1
# [16] = biological target: GlcNAc(b1-3)Gal(b1-3)GalNAc
# In short: as §1
# [17] = biological target: GlcNAc(b1-3)Gal(b1-4)Glc
# In short: as §1
# [18] = biological target: GlcNAc(b1-3)Gal(b1-4)GlcNAc
# In short: as §1
# [19] = biological target: GlcNAc(b1-3)Gal(b1-4)GlcNAc(b1-2)Man(a1-3)[GlcNAc(b1-3)Gal(b1-4)GlcNAc(b1-2)Man(a1-6)]Man(b1-4)GlcNAc(b1-4)GlcNAc
# In short: as §1
# [20] = biological target: GlcNAc(b1-3)Gal(b1-4)GlcNAc(b1-2)Man(a1-3)[GlcNAc(b1-3)Gal(b1-4)GlcNAc(b1-2)Man(a1-6)]Man(b1-4)GlcNAc(b1-4)[Fuc(a1-6)]GlcNAc
# In short: as §1
# [21] = biological target: GlcNAc(b1-3)Gal(b1-4)GlcNAc(b1-2)[GlcNAc(b1-3)Gal(b1-4)GlcNAc(b1-6)]Man(a1-6)[GlcNAc(b1-3)Gal(b1-4)GlcNAc(b1-2)Man(a1-3)]Man(b1-4)GlcNAc(b1-4)GlcNAc
# In short: as §1
# [22] = biological target: GlcNAc(b1-3)Gal(b1-4)GlcNAc(b1-3)Gal(b1-4)GlcNAc
# In short: as §1
# [23] = biological target: GlcNAc(b1-3)Gal(b1-4)GlcNAc(b1-3)Gal(b1-4)GlcNAc(b1-2)Man(a1-3)[GlcNAc(b1-3)Gal(b1-4)GlcNAc(b1-3)Gal(b1-4)GlcNAc(b1-2)Man(a1-6)]Man(b1-4)GlcNAc(b1-4)GlcNAc
# In short: as §1
# [24] = biological target: GlcNAc(b1-3)Gal(b1-4)GlcNAc(b1-3)Gal(b1-4)GlcNAc(b1-2)Man(a1-3)[GlcNAc(b1-3)Gal(b1-4)GlcNAc(b1-3)Gal(b1-4)GlcNAc(b1-2)Man(a1-6)]Man(b1-4)GlcNAc(b1-4)[Fuc(a1-6)]GlcNAc
# In short: as §1
# [25] = biological target: GlcNAc(b1-3)Gal(b1-4)GlcNAc(b1-3)Gal(b1-4)GlcNAc(b1-2)[GlcNAc(b1-3)Gal(b1-4)GlcNAc(b1-3)Gal(b1-4)GlcNAc(b1-6)]Man(a1-6)[GlcNAc(b1-3)Gal(b1-4)GlcNAc(b1-3)Gal(b1-4)GlcNAc(b1-2)Man(a1-3)]Man(b1-4)GlcNAc(b1-4)[Fuc(a1-6)]GlcNAc
# In short: as §1
# [26] = biological target: GlcNAc(b1-3)Gal(b1-4)GlcNAc(b1-3)Gal(b1-4)GlcNAc(b1-3)Gal(b1-4)GlcNAc(b1-2)Man(a1-3)[GlcNAc(b1-3)Gal(b1-4)GlcNAc(b1-3)Gal(b1-4)GlcNAc(b1-3)Gal(b1-4)GlcNAc(b1-2)Man(a1-6)]Man(b1-4)GlcNAc(b1-4)GlcNAc
# In short: as §1
# [27] = biological target: GlcNAc(b1-3)Gal(b1-4)GlcNAc(b1-3)Gal(b1-4)GlcNAc(b1-3)Gal(b1-4)GlcNAc(b1-2)Man(a1-3)[GlcNAc(b1-3)Gal(b1-4)GlcNAc(b1-3)Gal(b1-4)GlcNAc(b1-3)Gal(b1-4)GlcNAc(b1-2)Man(a1-6)]Man(b1-4)GlcNAc(b1-4)[Fuc(a1-6)]GlcNAc
# In short: as §1
# [28] = biological target: GlcNAc(b1-3)Gal(b1-4)GlcNAc(b1-3)Gal(b1-4)GlcNAc(b1-3)Gal(b1-4)GlcNAc(b1-2)[GlcNAc(b1-3)Gal(b1-4)GlcNAc(b1-3)Gal(b1-4)GlcNAc(b1-3)Gal(b1-4)GlcNAc(b1-6)]Man(a1-6)[GlcNAc(b1-3)Gal(b1-4)GlcNAc(b1-3)Gal(b1-4)GlcNAc(b1-3)Gal(b1-4)GlcNAc(b1-2)Man(a1-3)]Man(b1-4)GlcNAc(b1-4)[Fuc(a1-6)]GlcNAc
# In short: as §1
# [29] = biological target: GlcNAc(b1-3)Gal(b1-4)GlcNAc(b1-3)Gal(b1-4)GlcNAc(b1-3)Gal(b1-4)GlcNAc(b1-3)Gal(b1-4)GlcNAc(b1-2)Man(a1-3)[GlcNAc(b1-3)Gal(b1-4)GlcNAc(b1-3)Gal(b1-4)GlcNAc(b1-3)Gal(b1-4)GlcNAc(b1-3)Gal(b1-4)GlcNAc(b1-2)Man(a1-6)]Man(b1-4)GlcNAc(b1-4)GlcNAc
# In short: as §1
# [30] = biological target: GlcNAc(b1-3)Gal(b1-4)GlcNAc(b1-3)Gal(b1-4)GlcNAc(b1-3)Gal(b1-4)GlcNAc(b1-3)Gal(b1-4)GlcNAc(b1-2)Man(a1-3)[GlcNAc(b1-3)Gal(b1-4)GlcNAc(b1-3)Gal(b1-4)GlcNAc(b1-3)Gal(b1-4)GlcNAc(b1-3)Gal(b1-4)GlcNAc(b1-2)Man(a1-6)]Man(b1-4)GlcNAc(b1-4)[Fuc(a1-6)]GlcNAc
# In short: as §1
binder,measurement,setting,value
B1,glycan array binding signal (z-score),[1],0.062
same,glycan array binding signal (z-score),[2],-0.149
same,glycan array binding signal (z-score),[3],-0.348
same,glycan array binding signal (z-score),[4],-0.119
same,glycan array binding signal (z-score),[5],-0.292
same,glycan array binding signal (z-score),[6],-0.196
same,glycan array binding signal (z-score),[7],-0.161
same,glycan array binding signal (z-score),[8],-0.141
same,glycan array binding signal (z-score),[9],-0.123
same,glycan array binding signal (z-score),[10],-0.21
same,glycan array binding signal (z-score),[11],-0.356
same,glycan array binding signal (z-score),[12],0.217
same,glycan array binding signal (z-score),[13],-0.276
same,glycan array binding signal (z-score),[14],-0.107
same,glycan array binding signal (z-score),[15],-0.207
same,glycan array binding signal (z-score),[16],-0.239
same,glycan array binding signal (z-score),[17],-0.22
same,glycan array binding signal (z-score),[18],-0.228
same,glycan array binding signal (z-score),[19],-0.144
same,glycan array binding signal (z-score),[20],-0.237
same,glycan array binding signal (z-score),[21],-0.046
same,glycan array binding signal (z-score),[22],-0.317
same,glycan array binding signal (z-score),[23],-0.074
same,glycan array binding signal (z-score),[24],0.039
same,glycan array binding signal (z-score),[25],-0.074
same,glycan array binding signal (z-score),[26],-0.198
same,glycan array binding signal (z-score),[27],-0.139
same,glycan array binding signal (z-score),[28],-0.13
same,glycan array binding signal (z-score),[29],-0.273
same,glycan array binding signal (z-score),[30],0.052
